Consider 61 molecules from the supplement of paper PMC9446081.

Among all 39,000 compounds or so, about 220 (0.56%) showed activity. This is one part of the list.
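Note: static incubation at 37 °C against the wild-type strain, values averaged over two biological replicates.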

This experiment relates to Escherichia coli K-12 BW25113. Nature of the experiment: relative growth (OD600 normalised to plate interquartile mean) (fraction); higher = less growth inhibition, active = 0.2 or less. The note with it: 50 µM; LB; incubation time: overnight (16-24 h).
For `COC(=O)C1C2CC3c4[nH]c5cc(OC)ccc5c4CCN3CC2CC(OC(=O)c2cc(OC)c(OC)c(OC)c2)C1OC` (stereo unspecified), the relative growth was inactive: 0.986. In the case of `C[C@@H]1CN([C@@H](C)CO)C(=O)c2c(c3ccccc3n2C)-c2ccccc2CO[C@H]1CN(C)C(=O)[C@H](C)c1ccccc1`, the relative growth was inactive: 1.03. On to `COc1ccc(NC(=O)N(C)C[C@H]2Oc3c(NC(=O)c4ccc(-c5nccs5)cc4)cccc3C(=O)N([C@@H](C)CO)C[C@@H]2C)cc1`, for which the relative growth was inactive: 0.981. Turning to `CC(C)C[C@H]1CC(=O)N=C(N)N1`, the relative growth was inactive: 0.975. As to `CC(C)CC#Cc1ccc2c(c1)O[C@@H](CN(C)C(=O)c1ccncc1)[C@H](C)CN([C@@H](C)CO)S2(=O)=O`, the relative growth is inactive: 0.957. As for `Cc1noc(C)c1NC(=O)Nc1ccc2c(c1)CC(=O)N([C@@H](C)CO)C[C@@H](C)[C@@H](CN(C)CC1CC1)O2`, the relative growth is inactive: 1.02. Turning to `CCOC(=O)C(C)(C)Oc1ccc(Cl)cc1`, the relative growth is inactive: 1.04. As for `CCNC(=O)[C@H]1O[C@@H](n2cnc3c(N)nc(NCCc4ccc(CCC(=O)O)cc4)nc32)[C@H](O)[C@@H]1O`, the relative growth is inactive: 0.99. Turning to `CC1(C)SCCN(S(=O)(=O)c2ccc(OCC#CCO)cc2)[C@H]1C(=O)NO`, the relative growth is inactive: 1.01.

Consider `C[C@@H]1CN([C@H](C)CO)C(=O)c2cc(NS(=O)(=O)c3ccc(Cl)cc3)ccc2O[C@H]1CN(C)C(=O)Nc1ccc(C(F)(F)F)cc1`, for which the relative growth was inactive: 0.984. With `C[C@@H]1CN([C@H](C)CO)C(=O)c2cc(NS(=O)(=O)c3cn(C)cn3)ccc2O[C@@H](C)CCCCO[C@H]1CN(C)C`, the relative growth is inactive: 0.984. For the molecule `COc1ccc2c3c([nH]c2c1)[C@@H](CO)N(C[C@]13CN(CC2CCCCC2)C1)S(=O)(=O)c1cn(cn1)C`, the relative growth is inactive: 0.985. Take `C[C@@H]1CN([C@@H](C)CO)C(=O)c2cc(NC(=O)Cn3cnnn3)ccc2O[C@@H]1CN(C)Cc1ccc2c(c1)OCO2`: the relative growth was inactive: 0.967. Take `CN1CCN(S(C)(=O)=O)CC1`: the relative growth is inactive: 1.01. In the case of `C[C@H](CO)N1C[C@H](C)[C@@H](CN(C)Cc2ccncc2)OCCCC[C@H](C)Oc2ccc(NS(C)(=O)=O)cc2C1=O` it was inactive: 0.983; in that of `NCc1ccc(S(N)(=O)=O)cc1`, inactive: 0.893; in that of `CC(=O)NCCCS(=O)(=O)[O-].CC(=O)NCCCS(=O)(=O)[O-].[Ca+2]`, inactive: 1.1.

Consider `CO[C@@H]1CN(C)C(=O)c2ccc(NC(=O)CN(C)C)cc2OC[C@@H](C)N(C(=O)C2CCOCC2)C[C@H]1C`, for which the relative growth is inactive: 1.01.

As for `C[C@H](CO)N1C[C@H](C)[C@H](CN(C)S(=O)(=O)c2ccccc2)Oc2c(NS(=O)(=O)c3cccs3)cccc2C1=O`, the relative growth is inactive: 0.988. Consider `COc1ccc(-c2cccc(-c3nc(C(=O)NCC(F)(F)F)cc4c3[C@@H](CCO)N([S@](=O)C(C)(C)C)C4)c2)cc1`, for which the relative growth was inactive: 1.02.

For the molecule `O=C(Cc1ccncc1)NCC[C@@H]1CC[C@H](NC(=O)C2CCOCC2)[C@@H](CO)O1`, the relative growth is inactive: 0.999. With `C[C@@H]1CN([C@@H](C)CO)C(=O)c2cc(NC(=O)Nc3ccc4c(c3)OCO4)ccc2O[C@@H](C)CCCCO[C@@H]1CN(C)Cc1ccc2c(c1)OCO2`, the relative growth is inactive: 1.01.

Consider `C[C@H]1CN([C@@H](C)CO)C(=O)c2cc(Br)cnc2O[C@@H]1CN(C)C(=O)Nc1ccc(F)cc1`, for which the relative growth is inactive: 1.

For the molecule `C[C@@H]1CN([C@H](C)CO)C(=O)c2cc(NC(=O)Nc3ccc(F)cc3)ccc2O[C@@H](C)CCCCO[C@H]1CN(C)S(=O)(=O)c1ccc(F)cc1`, the relative growth is inactive: 1.05. On to `CO[C@H]1CN(C)C(=O)c2cc(NS(=O)(=O)CC(F)(F)F)ccc2OC[C@H](C)N(C(=O)c2ccc3c(c2)OCO3)C[C@H]1C`, for which the relative growth is inactive: 0.966. Regarding `Cc1noc(C)c1S(=O)(=O)Nc1ccc2c(c1)C(=O)N([C@H](C)CO)C[C@@H](C)[C@@H](CN(C)Cc1ccccc1)O2`, the relative growth was inactive: 0.998.

With `COc1ccc(S(=O)(=O)N(C)C[C@H]2Oc3c(NC(=O)Nc4c(C)noc4C)cccc3C(=O)N([C@@H](C)CO)C[C@@H]2C)cc1`, the relative growth is inactive: 1.04. Turning to `C[C@H]1CN([C@@H](C)CO)C(=O)c2ccccc2-c2ccccc2CO[C@@H]1CN(C)C(=O)Nc1cccc(C(F)(F)F)c1`, the relative growth was inactive: 1.01. In the case of `CC(C)=CCCC(C)CC=O` (stereo unspecified), the relative growth was inactive: 1.

As for `COc1ccc(S(=O)(=O)N(C)C[C@H]2Oc3c(NS(=O)(=O)c4ccc(F)cc4)cccc3C(=O)N([C@H](C)CO)C[C@@H]2C)cc1`, the relative growth is inactive: 0.997. `C[C@@H]1CN([C@@H](C)CO)C(=O)c2cc(NC(=O)Nc3ccc(C(F)(F)F)cc3)ccc2O[C@@H](C)CCCCO[C@@H]1CN(C)Cc1ccc2c(c1)OCO2`: the relative growth was inactive: 1. In the case of `CNC[C@@H]1Oc2cc(C#CC(C)(C)O)ccc2S(=O)(=O)N([C@@H](C)CO)C[C@@H]1C`, the relative growth was inactive: 1. Regarding `C[C@@H]1CN([C@@H](C)CO)C(=O)c2cc(NS(=O)(=O)c3cn(C)cn3)ccc2O[C@@H]1CN(C)Cc1ccccc1`, the relative growth was inactive: 1.02. Consider `O=C(C[C@@H]1C=C[C@H](NS(=O)(=O)c2ccc(F)cc2)[C@H](CO)O1)NCCN1CCCCC1`, for which the relative growth was inactive: 0.999. On to `COc1cccc(S(=O)(=O)N2C[C@@H](O)COC[C@@H]3O[C@H](CC(=O)N4CCN(C)CC4)CC[C@H]32)c1`, for which the relative growth was inactive: 1. In the case of `C[C@@H]1CCCCO[C@@H](CN(C)C(=O)Nc2cccc3ccccc23)[C@H](C)CN([C@@H](C)CO)C(=O)c2cc(NC(=O)Cc3ccccc3)ccc2O1`, the relative growth was inactive: 1.04. Turning to `C[C@H](CO)N1C[C@H](C)[C@H](CN(C)Cc2ccc(C(F)(F)F)cc2)Oc2ccc(NC(=O)CCCCCC(=O)Nc3ccccc3N)cc2C1=O`, the relative growth was inactive: 1.08. In the case of `Cc1ccc(S(=O)(=O)N(C)C[C@H]2Oc3c(NS(=O)(=O)c4ccccc4)cccc3C(=O)N([C@H](C)CO)C[C@@H]2C)cc1` it was inactive: 0.971; in that of `C=C[C@](C)(CC[C@@]1(C)[C@H](C)C[C@H](O[C@@H]2O[C@@H](C)[C@H](O)[C@@H](O[C@@H]3O[C@H](CO[C@@H]4O[C@@H](C)[C@H](O)[C@@H](O)[C@H]4O)[C@@H](O)[C@H](O)[C@H]3O)[C@H]2O)[C@@]2(C)C(C)=CCC[C@H]12)O[C@@H]1OC[C@H](O)[C@H](O)[C@H]1O[C@@H]1O[C@@H](C)[C@H](O)[C@@H](O)[C@H]1O`, inactive: 0.998; in that of `C[C@@H]1CN([C@H](C)CO)C(=O)Cc2cc(NC(=O)CCN3CCOCC3)ccc2O[C@@H]1CN(C)S(=O)(=O)c1ccc(F)cc1`, inactive: 0.996.

With `CN(C)C(=N)NC(=N)N.Cl`, the relative growth is inactive: 1.03.

Regarding `Cc1ccc(S(=O)(=O)N(C)C[C@@H]2OCCCC[C@@H](C)Oc3ccc(NS(C)(=O)=O)cc3C(=O)N([C@H](C)CO)C[C@@H]2C)cc1`, the relative growth is inactive: 0.981.

Turning to `COc1cccc(S(=O)(=O)N(C)C[C@H]2Oc3ncc(C#CCC(C)C)cc3C(=O)N([C@@H](C)CO)C[C@@H]2C)c1`, the relative growth was inactive: 1.01. In the case of `Cc1ccc(S(=O)(=O)N(C)C[C@H]2Oc3ccc(NC(=O)NC(C)C)cc3CC(=O)N([C@H](C)CO)C[C@@H]2C)cc1` it was inactive: 1.02; in that of `C[C@H](CO)N1C[C@H](C)[C@H](CN(C)Cc2ccncc2)Oc2ccc(NC(=O)Nc3ccc(C(F)(F)F)cc3)cc2CC1=O`, inactive: 1.01; in that of `COc1ccc(NC(=O)Nc2ccc3c(c2)C(=O)N([C@H](C)CO)C[C@H](C)[C@@H](CN(C)C(=O)Nc2ccc(C(F)(F)F)cc2)OCCCC[C@H](C)O3)cc1`, inactive: 1.

On to `Cc1ccc(N2CC[C@@H](CN)C2)cc1`, for which the relative growth was inactive: 0.994. Regarding `C[C@H]1CCCCO[C@@H](CN(C)Cc2ccc(C(F)(F)F)cc2)[C@@H](C)CN([C@@H](C)CO)C(=O)c2cc(NC(=O)CCCN(C)C)ccc2O1`, the relative growth was inactive: 0.961. Turning to `C[C@@H]1CCCCO[C@@H](CN(C)S(=O)(=O)c2cccs2)[C@H](C)CN([C@@H](C)CO)C(=O)c2cc(NC(=O)c3ccccc3)ccc2O1`, the relative growth was inactive: 1.03. With `CN(C)CC(=O)N[C@H]1CC[C@H](CCNC(=O)C2CC2)O[C@@H]1CO`, the relative growth is inactive: 0.967. Consider `C[C@@H]1CN([C@H](C)CO)C(=O)c2cc(C#Cc3ccccc3F)cnc2O[C@@H]1CN(C)S(=O)(=O)c1ccccc1F`, for which the relative growth is inactive: 1.02.

For `COc1ccc(C#Cc2cnc3c(c2)C(=O)N([C@H](C)CO)C[C@H](C)[C@H](CN(C)C(=O)Nc2c(C)noc2C)O3)cc1OC`, the relative growth is inactive: 1.01.

As for `CN(C)CC(=O)N1CCOC[C@@H]1c1nccc(N2CCOCC2)n1`, the relative growth is inactive: 0.99. In the case of `COc1ccc(NC(=O)Nc2ccc3c(c2)C(=O)N([C@H](C)CO)C[C@@H](C)[C@@H](CN(C)Cc2ccc4c(c2)OCO4)OCCCC[C@@H](C)O3)cc1` it was inactive: 1.01. In the case of `Cc1cc(Oc2ccnc3cc(Cl)ccc23)ccc1Cl` it was inactive: 0.879; in that of `Cc1ccc(S(=O)(=O)N(C)C[C@@H]2Oc3c(NC(=O)c4ccncc4)cccc3C(=O)N([C@@H](C)CO)C[C@H]2C)cc1`, inactive: 0.999; in that of `Cc1ccc(S(=O)(=O)Nc2ccc3c(c2)C(=O)N([C@@H](C)CO)C[C@@H](C)[C@@H](CN(C)Cc2ccc(-c4ccccc4)cc2)O3)cc1`, inactive: 0.921. The result for `NNCCc1ccccc1.O=S(=O)(O)O` reads inactive: 0.877; that for `Cc1ccc(S(=O)(=O)N[C@H](C)C(=O)O)cc1`, inactive: 0.997.

As to `Cc1ccc(S(=O)(=O)Nc2ccc3c(c2)C(=O)N([C@@H](C)CO)C[C@H](C)[C@@H](CN(C)Cc2ccc(C(=O)Nc4ccccc4N)cc2)OCCCC[C@@H](C)O3)cc1`, the relative growth was inactive: 0.972. On to `C[C@@H]1CN([C@H](C)CO)C(=O)c2cccc(NS(=O)(=O)c3ccccc3)c2O[C@H]1CN(C)S(=O)(=O)c1cn(C)cn1`, for which the relative growth is inactive: 1.
